In all, about 81,000 sequences were measured (“one-hybrid fitness for binding NBS DNA”: median about -0.1, highest 2% from about 0.36 on). The list shows a part of the results.
B1: Caulobacter ParB omega fusion; a variant is named by its letters at X, in order, B8GW30 (parent)
chain: MESVVVGEPGMSEGRRGLGRGLSALLGEVDAAPAQAPGEQLGGSREAPIEILQRNPDQPRRTFREEDLEDLSNSIREKGVLQPILVRPSPDTAGEYQIVAGERAWRAAQRAGLKTVPIMVRELDDLAVLEIGIIENVQRADLNVLEEALSYKVLMEKFERTQENIAQTIGKSXSHVANXMRLLXLPDEVQSYLVSGELTAXHARAIAAAADPVALAKQIIEGGLSVRETEALARKAPNLSAGKSKGGRPPRVKDTDTQALESDLSSVLGLDVSIDHRGSTGTLTITYATLEQLDDLCNRLTRGI

Variants of: B1
Assay: one-hybrid fitness for binding NBS DNA (the Noc-binding site; scaled: cognate 1, non-cognate 0); higher = stronger binding
Settings: with NBS DNA site
Method in brief: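 Caulobacter ParB libraries with four specificity codons randomised were screened by bacterial one-hybrid selection in the E. coli USO strain, using a HIS3 reporter whose site lies 19 bp from the promoter. Selection ran for 48 hours at 37°C on M9 lacking histidine, with 0.1 mM IPTG and 5 mM 3-AT. Plasmids were Illumina-sequenced before and after selection, three replicate libraries were pooled, and variants with under 10 reads were dropped. Fitness is the log change in each variant's read ratio to wild type, rescaled against the cognate and non-cognate sites.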

one-hybrid fitness for binding NBS DNA, ≤ 0.2:
NTGS
ERLR
VTDG
QKYW
ILLS
GQVI
RQDG
RNYY
MKMC
LEDT
IRVC
KASW
WNEY
TEAG
PRCC
EETG
TAVI
TAWV
IKST
VHFP
DLKC
THDT
YAFT
IRYN
FKRT
NQYI
KAGS
ARGE
NVSY
PFSG
HHTF
VFAI
TEET
LGSM
DFSC
WHLI
RWCS
GYNR
YFNF
HIRA
WSRV
TYDY
PRNF
LYWC
CQYV
PGFT
PLIG
RFIL
SSNN
TNTG
LPSL
IMAT
RPAC
PVYN
QEVL
EPKV
VDQD
DGMY
DENR
LCKE
LIGE
FANS
TTPE
KHMR
HMMR
QLNM
LVYR
AFGS
RCFA
VTHY
